Laboratory results: the supplement of paper PMC4967469
IC50 is the fitted dose that halves viability relative to control wells, and lower means more sensitive; fits outside the tested doses are given as limits. AUC is the area under the same curve over the 256-fold range up to the top dose, as a fraction; values near 1 show little effect. For some assays here: Where the top dose is marked as inferred, it was calculated from the reported fits. For some assays here: An entry number marks a drug with two screens in the source, which often give different values.

How the values were obtained:
Experiment in all cases: Viability of human cancer cell lines after 72 h of drug (GDSC screen)
[1] = compound: CC(C)(C)c1cc(NC(=O)Nc2ccc(-c3cn4c(n3)sc3cc(OCCN5CCOCC5)ccc34)cc2)no1 [AC220]; details: top dose 1.024 µM; top dose inferred
Description: (§1)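 Human cancer cell lines in 384-well plates, medium with 10% serum, drug for 72 h over a 256-fold dose range (nine 2-fold or five 4-fold steps up to the top dose). Adherent lines were fixed and stained with the nucleic acid dye Syto60, suspension lines read with resazurin; signal relative to control wells, capped at 0 and 100%. One two-parameter sigmoid per drug and line, fitted in a mixed model over all curves with the slope shared within a line.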

[2] = compound: NCC(=O)Nc1ccc(-n2nc(C(F)(F)F)cc2-c2ccc3c(ccc4ccccc43)c2)cc1 [OSU-03012]; details: top dose 16 µM; top dose inferred
Description: as §1

[3] = compound: COc1cc(F)c(F)c(Nc2ccc(I)cc2F)c1NS(=O)(=O)C1(C[C@H](O)CO)CC1 [RDEA119]; details: top dose 5 µM, top dose inferred
Description: as §1

[4] = compound: Fc1cc(-c2ccnc(Nc3ccc(-n4cnc(N5CCOCC5)n4)cc3)n2)cc(N2CCOCC2)c1 [JNK-9L]; details: top dose 5.12 µM; top dose inferred
Description: as §1

[5] = compound: OC[C@H](Cc1ccccc1)Nc1nc(Oc2ccc3c(c2)CCC3)nc2c1ncn2Cc1ccc(-c2ccccc2)cc1 [QS11]; details: top dose 10.24 µM
Description: as §1

[6] = compound: O=c1[nH]cc(F)c(=O)[nH]1 [5-Fluorouracil]; details: top dose 32 µM; top dose inferred
Description: as §1

[7] = compound: C#Cc1cccc(Nc2ncnc3cc(OC)c(OCCCCCCC(=O)NO)cc23)c1 [CUDC-101]; details: top dose 5.12 µM; top dose inferred
Description: as §1

Cell Line	AUC [1]	IC50 [1]	AUC [2]	IC50 [2]	AUC ([3]; screen: GDSC drug entry 1014)	IC50 ([3]; screen: GDSC drug entry 1014)	AUC ([3]; screen: GDSC drug entry 1526)	IC50 ([3]; screen: GDSC drug entry 1526)	AUC [4]	IC50 [4]	AUC [5]	IC50 [5]	AUC [6]	IC50 [6]	AUC [7]	IC50 [7]
D-392MG (glioma, adherent)	0.926	> 1020 nM	0.867	> 16 µM	0.803	3620 nM	0.813	4020 nM	0.755	2320 nM	0.98	> 10.2 µM	0.943	> 32 µM	0.623	791 nM
RPMI-2650 (head and neck, adherent)	0.973	> 1020 nM	0.578	1.67 µM	0.894	> 5000 nM	0.974	> 5000 nM	0.421	191 nM	0.9	> 10.2 µM	0.836	23.8 µM	0.45	231 nM
NCI-H2342 (lung adenocarcinoma, adherent)	0.984	> 1020 nM	0.536	1.26 µM	0.963	> 5000 nM	0.973	> 5000 nM	0.562	480 nM	0.761	3.98 µM	0.975	> 32 µM	0.87	> 5120 nM
LB2241-RCC (kidney, adherent)	0.984	> 1020 nM	0.721	4.59 µM			0.704	1270 nM	0.643	840 nM	0.901	> 10.2 µM	0.971	> 32 µM	0.784	2460 nM
HDLM-2 (Hodgkin lymphoma, suspension)	0.988	> 1020 nM	0.805	7.94 µM	0.981	> 5000 nM	0.98	> 5000 nM	0.619	677 nM	0.982	> 10.2 µM	0.989	> 32 µM	0.832	3200 nM
TT2609-C02 (thyroid, adherent)	0.985	> 1020 nM	0.473	0.84 µM	0.336	105 nM	0.717	1350 nM	0.438	214 nM	0.895	> 10.2 µM	0.821	20.1 µM	0.534	400 nM
SW756 (cervix, adherent)	0.984	> 1020 nM	0.713	4.54 µM	0.707	1350 nM	0.763	2140 nM	0.727	1630 nM	0.903	> 10.2 µM	0.933	> 32 µM	0.775	2430 nM
HCC-15 (lung squamous cell carcinoma, adherent)	0.978	> 1020 nM	0.733	5.69 µM	0.504	322 nM	0.368	121 nM	0.694	1320 nM	0.86	> 10.2 µM	0.948	> 32 µM	0.898	> 5120 nM
J82 (bladder, adherent)	0.988	> 1020 nM	0.519	1.13 µM			0.964	> 5000 nM	0.539	408 nM	0.845	7.32 µM	0.948	> 32 µM	0.89	> 5120 nM
MOG-G-CCM (glioma, adherent)	0.975	> 1020 nM	0.785	8.12 µM	0.926	> 5000 nM	0.926	> 5000 nM	0.522	370 nM	0.983	> 10.2 µM	0.859	> 32 µM	0.496	312 nM
MOG-G-UVW (glioma, adherent)	0.987	> 1020 nM	0.728	4.36 µM	0.831	3050 nM	0.815	2660 nM	0.597	586 nM	0.973	> 10.2 µM	0.743	9.67 µM	0.506	333 nM
CHP-126 (neuroblastoma, suspension)	0.98	> 1020 nM	0.756	5.59 µM	0.986	> 5000 nM	0.985	> 5000 nM	0.628	729 nM	0.836	7.04 µM	0.461	1.56 µM	0.738	1560 nM
HCC1143 (breast, adherent)	0.979	> 1020 nM	0.864	> 16 µM	0.683	1250 nM	0.739	2020 nM	0.648	971 nM	0.943	> 10.2 µM	0.979	> 32 µM	0.487	291 nM
HPAF-II (pancreas, adherent)	0.965	> 1020 nM	0.837	15.9 µM			0.631	805 nM	0.598	644 nM	0.857	> 10.2 µM	0.91	> 32 µM	0.796	3290 nM
RT4 (bladder, adherent)	0.965	> 1020 nM	0.862	14.9 µM	0.944	> 5000 nM	0.929	> 5000 nM	0.735	1560 nM	0.987	> 10.2 µM	0.831	21.8 µM	0.446	226 nM
ASH-3 (thyroid, adherent)	0.988	> 1020 nM	0.67	2.97 µM	0.647	795 nM	0.429	200 nM	0.62	683 nM	0.926	> 10.2 µM	0.988	> 32 µM	0.922	> 5120 nM
SW962 (urogenital system, adherent)	0.967	> 1020 nM	0.628	2.47 µM	0.682	1150 nM	0.639	833 nM	0.885	> 5120 nM	0.842	9.89 µM	0.92	> 32 µM	0.591	606 nM

Cell Line	AUC [1]	IC50 [1]	AUC [2]	IC50 [2]	AUC ([3]; screen: GDSC drug entry 1014)	IC50 ([3]; screen: GDSC drug entry 1014)	AUC ([3]; screen: GDSC drug entry 1526)	IC50 ([3]; screen: GDSC drug entry 1526)	AUC [4]	IC50 [4]	AUC [5]	IC50 [5]	AUC [6]	IC50 [6]	AUC [7]	IC50 [7]
Hs633T (fibrosarcoma, adherent)	0.992	> 1020 nM	0.494	0.967 µM	0.489	294 nM	0.645	725 nM	0.475	277 nM	0.742	2.68 µM	0.678	5.66 µM	0.48	285 nM
C3A (liver, adherent)	0.988	> 1020 nM	0.676	3.18 µM	0.879	> 5000 nM	0.755	1760 nM	0.535	400 nM	0.936	> 10.2 µM	0.987	> 32 µM	0.779	2180 nM
SF126 (glioma, adherent)	0.985	> 1020 nM	0.715	4.2 µM	0.878	> 5000 nM	0.867	4960 nM	0.74	1630 nM	0.934	> 10.2 µM	0.894	> 32 µM	0.698	1190 nM
HuH-7 (liver, adherent)	0.987	> 1020 nM	0.839	10.9 µM	0.751	1650 nM	0.801	2420 nM	0.565	480 nM	0.964	> 10.2 µM	0.983	> 32 µM	0.525	374 nM
HAL-01 (lymphoblastic leukaemia, suspension)	0.908	> 1020 nM	0.688	3.13 µM	0.686	968 nM	0.857	3350 nM	0.589	543 nM	0.883	8.77 µM	0.624	4.21 µM	0.62	658 nM
EFM-192A (breast, adherent)	0.98	> 1020 nM	0.521	1.15 µM	0.959	> 5000 nM	0.981	> 5000 nM	0.283	71.7 nM	0.764	4.11 µM	0.931	> 32 µM	0.677	1060 nM
SK-N-FI (neuroblastoma, adherent)	0.977	> 1020 nM	0.877	15.8 µM	0.688	1040 nM	0.909	> 5000 nM	0.884	> 5120 nM	0.989	> 10.2 µM	0.971	> 32 µM	0.673	971 nM
HT-144 (melanoma, adherent)	0.975	> 1020 nM	0.748	5.69 µM	0.289	73.3 nM	0.478	270 nM	0.367	132 nM	0.859	10.2 µM	0.729	9.75 µM	0.981	> 5120 nM
A673 (rhabdomyosarcoma, adherent)	0.99	> 1020 nM	0.697	3.34 µM	0.95	> 5000 nM	0.941	> 5000 nM	0.624	674 nM	0.938	> 10.2 µM	0.969	> 32 µM	0.71	1160 nM
NCI-H1688 (small cell lung carcinoma, adherent)	0.954	> 1020 nM	0.937	> 16 µM	0.952	> 5000 nM	0.985	> 5000 nM	0.628	748 nM	0.97	> 10.2 µM	0.964	> 32 µM	0.524	374 nM
EW-1 (Ewing sarcoma, semi-adherent)	0.934	> 1020 nM	0.618	2.05 µM	0.978	> 5000 nM	0.982	> 5000 nM	0.589		0.877	8.88 µM	0.561	2.89 µM	0.416	193 nM
GMS-10 (glioma, adherent)	0.988	> 1020 nM	0.889	> 16 µM	0.845	3580 nM	0.829	3070 nM	0.619	677 nM	0.96	> 10.2 µM	0.984	> 32 µM	0.855	4020 nM
RD (rhabdomyosarcoma, adherent)	0.984	> 1020 nM	0.738	5.17 µM			0.568	490 nM	0.652	884 nM	0.923	> 10.2 µM	0.863	> 32 µM	0.576	527 nM
SU8686 (pancreas, adherent)	0.981	> 1020 nM	0.796	8.52 µM			0.921	> 5000 nM	0.581	550 nM	0.952	> 10.2 µM	0.874	> 32 µM	0.685	1130 nM
EC-GI-10 (oesophagus, adherent)	0.989	> 1020 nM	0.972	> 16 µM	0.618	659 nM	0.789	2180 nM	0.797	2380 nM	0.984	> 10.2 µM	0.948	> 32 µM	0.684	1040 nM
LOU-NH91 (lung squamous cell carcinoma, adherent)	0.984	> 1020 nM	0.898	> 16 µM	0.876	> 5000 nM	0.937	> 5000 nM	0.881	> 5120 nM	0.98	> 10.2 µM	0.964	> 32 µM	0.602	625 nM
TE-9 (oesophagus, adherent)	0.987	> 1020 nM	0.666	2.95 µM	0.944	> 5000 nM	0.914	> 5000 nM	0.345	116 nM	0.921	> 10.2 µM	0.914	> 32 µM	0.976	> 5120 nM
